The supplement of paper PMC10037445
Whole data set: some 2,900 compounds, median “NF-kB SEAP reporter activity, fold change vs agonist alone” near 0.99, cut for the highest 2% near 2.6. Some of the results follow.

Assays:
RAW-Dual [1] = test: NF-kB SEAP reporter activity, fold change vs agonist alone; higher = enhanced NF-kB activity; conditions: library stock concentration (final ~1000-fold dilution): 10 mM
Method in brief: (§1)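 Supernatant from RAW-Dual macrophages was read after 20 hours for IRF by QuantiLuc luminescence and for NF-κB by QuantiBlue absorbance at 620 nm. The cells (50,000 cells/well in DMEM, 384-well plates, 37 °C, 5% CO2) had received 50 nL of library stock by pin tool and, 1 h later, a PRR agonist. Reporter activity is expressed relative to agonist-alone wells as fold change, and wells were flagged cytotoxic if IncuCyte confluency was under 70% of agonist controls in both mask sets.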

RAW-Dual [2] = test: NF-kB SEAP reporter activity, fold change vs agonist alone; cytotoxicity flag (confluency mask): not cytotoxic; higher = enhanced NF-kB activity
Method in brief: as §1

RAW-Dual [3] = test: NF-kB SEAP reporter activity, fold change vs agonist alone; cytotoxicity flag (confluency mask): cytotoxic (confluency <70% of control); higher = enhanced NF-kB activity
Method in brief: as §1

[4] = cytotoxicity flag (confluency mask): not cytotoxic, agonist: Imiquimod (TLR7) […]
[5] = cytotoxicity flag (confluency mask): not cytotoxic, agonist: MPLA (TLR4) […]
[6] = agonist: ODN 1826 (TLR9) 0.5 ug/mL
[7] = agonist: Pam2CSK4 (TLR2/6) 0.1 ug/mL
[8] = agonist: Pam3CSK4 (TLR2/1) 0.1 ug/mL
[9] = cytotoxicity flag (confluency mask): cytotoxic (confluency <70% of control), agonist: Imiquimod (TLR7) […]
[10] = cytotoxicity flag (confluency mask): cytotoxic (confluency <70% of control), agonist: MPLA (TLR4) […]

CC(C)c1cc(C(C)C)c(CC(=O)NS(=O)(=O)Oc2c(C(C)C)cccc2C(C)C)c(C(C)C)c1
NF-kB SEAP reporter activity (RAW-Dual [1]; [4]): 0.913
NF-kB SEAP reporter activity (RAW-Dual [1]; [5]): 0.911

CC(C)c1cc(C(C)C)c(CC(=O)NS(=O)(=O)Oc2c(C(C)C)cccc2C(C)C)c(C(C)C)c1 (library stock concentration (final ~1000-fold dilution): 10 mM)
NF-kB SEAP reporter activity (RAW-Dual [2]; agonist: LPS (TLR4) 0.1 ug/mL): 1.39
NF-kB SEAP reporter activity (RAW-Dual [2]; [6]): 0.949
NF-kB SEAP reporter activity (RAW-Dual [2]; [7]): 0.266
NF-kB SEAP reporter activity (RAW-Dual [2]; [8]): 0.733

COC(=O)/C=C/C(=O)OC (library stock concentration (final ~1000-fold dilution): 10 mM)
NF-kB SEAP reporter activity (RAW-Dual [2]; agonist: LPS (TLR4) 0.1 ug/mL): 0.79
NF-kB SEAP reporter activity (RAW-Dual [2]; [6]): 0.844
NF-kB SEAP reporter activity (RAW-Dual [2]; [7]): 0.645
NF-kB SEAP reporter activity (RAW-Dual [2]; [8]): 0.624

COC(=O)/C=C/C(=O)OC
NF-kB SEAP reporter activity (RAW-Dual [1]; [4]): 0.885
NF-kB SEAP reporter activity (RAW-Dual [1]; [5]): 0.927

Nc1ncn(C2OC(CO)C(O)C2O)c(=O)n1 (configuration not stated) (library stock concentration (final ~1000-fold dilution): 10 mM)
NF-kB SEAP reporter activity (RAW-Dual [2]; agonist: LPS (TLR4) 0.1 ug/mL): 1.06
NF-kB SEAP reporter activity (RAW-Dual [2]; [6]): 1.91
NF-kB SEAP reporter activity (RAW-Dual [2]; [7]): 0.631
NF-kB SEAP reporter activity (RAW-Dual [2]; [8]): 0.71

Nc1ncn(C2OC(CO)C(O)C2O)c(=O)n1 (configuration not stated)
NF-kB SEAP reporter activity (RAW-Dual [1]; [4]): 2.59
NF-kB SEAP reporter activity (RAW-Dual [1]; [5]): 2.47

CCN1C(=O)C=CC1=O (library stock concentration (final ~1000-fold dilution): 10 mM)
NF-kB SEAP reporter activity (RAW-Dual [3]; agonist: LPS (TLR4) 0.1 ug/mL): 0.254
NF-kB SEAP reporter activity (RAW-Dual [3]; [6]): 0.661
NF-kB SEAP reporter activity (RAW-Dual [3]; [7]): 0.125
NF-kB SEAP reporter activity (RAW-Dual [3]; [8]): 0.804

CCN1C(=O)C=CC1=O
NF-kB SEAP reporter activity (RAW-Dual [1]; [9]): 1.53
NF-kB SEAP reporter activity (RAW-Dual [1]; [10]): 0.608

O=C(NC(Cc1cc(=O)[nH]c2ccccc12)C(=O)O)c1ccc(Cl)cc1 (configuration not stated)
NF-kB SEAP reporter activity (RAW-Dual [1]; [4]): 0.892
NF-kB SEAP reporter activity (RAW-Dual [1]; [5]): 1.01

O=C(NC(Cc1cc(=O)[nH]c2ccccc12)C(=O)O)c1ccc(Cl)cc1 (configuration not stated) (library stock concentration (final ~1000-fold dilution): 10 mM)
NF-kB SEAP reporter activity (RAW-Dual [2]; agonist: LPS (TLR4) 0.1 ug/mL): 1.26
NF-kB SEAP reporter activity (RAW-Dual [2]; [6]): 0.836
NF-kB SEAP reporter activity (RAW-Dual [2]; [7]): 1.03
NF-kB SEAP reporter activity (RAW-Dual [2]; [8]): 1.12

Cc1cc(Nc2ncnc3ccc(NC4=NC(C)(C)CO4)cc23)ccc1Oc1ccn2ncnc2c1
NF-kB SEAP reporter activity (RAW-Dual [1]; [4]): 0.247
NF-kB SEAP reporter activity (RAW-Dual [1]; [5]): 1.01

Cc1cc(Nc2ncnc3ccc(NC4=NC(C)(C)CO4)cc23)ccc1Oc1ccn2ncnc2c1 (library stock concentration (final ~1000-fold dilution): 10 mM)
NF-kB SEAP reporter activity (RAW-Dual [2]; agonist: LPS (TLR4) 0.1 ug/mL): 1.1
NF-kB SEAP reporter activity (RAW-Dual [2]; [6]): 0.65
NF-kB SEAP reporter activity (RAW-Dual [2]; [7]): 0.749
NF-kB SEAP reporter activity (RAW-Dual [2]; [8]): 1.04

O=C(c1c(F)ccc(NS(=O)(=O)N2CCC(F)C2)c1F)c1c[nH]c2ncc(-c3cnc(C4CC4)nc3)cc12 (configuration not stated) (library stock concentration (final ~1000-fold dilution): 10 mM)
NF-kB SEAP reporter activity (RAW-Dual [2]; agonist: LPS (TLR4) 0.1 ug/mL): 3.62
NF-kB SEAP reporter activity (RAW-Dual [2]; [6]): 1.42
NF-kB SEAP reporter activity (RAW-Dual [2]; [7]): 0.526
NF-kB SEAP reporter activity (RAW-Dual [2]; [8]): 0.5

O=C(c1c(F)ccc(NS(=O)(=O)N2CCC(F)C2)c1F)c1c[nH]c2ncc(-c3cnc(C4CC4)nc3)cc12 (configuration not stated)
NF-kB SEAP reporter activity (RAW-Dual [1]; [4]): 1.12
NF-kB SEAP reporter activity (RAW-Dual [1]; [5]): 1.52

O=C(NC1=CC(=O)[C@@H]2O[C@@H]2[C@@H]1O)c1ccccc1O (library stock concentration (final ~1000-fold dilution): 10 mM)
NF-kB SEAP reporter activity (RAW-Dual [2]; agonist: LPS (TLR4) 0.1 ug/mL): 0.954
NF-kB SEAP reporter activity (RAW-Dual [2]; [6]): 0.718
NF-kB SEAP reporter activity (RAW-Dual [2]; [7]): 0.356
NF-kB SEAP reporter activity (RAW-Dual [2]; [8]): 0.314

O=C(NC1=CC(=O)[C@@H]2O[C@@H]2[C@@H]1O)c1ccccc1O
NF-kB SEAP reporter activity (RAW-Dual [1]; [4]): 0.849
NF-kB SEAP reporter activity (RAW-Dual [1]; [5]): 0.949

CC(C)NC(=O)C1CCC(n2c(=NC(=O)c3ccc(F)cc3)[nH]c3ccc(CN4CCC(C(C)(C)O)CC4)cc32)CC1 (configuration not stated) (library stock concentration (final ~1000-fold dilution): 10 mM)
NF-kB SEAP reporter activity (RAW-Dual [2]; agonist: LPS (TLR4) 0.1 ug/mL): 1.17
NF-kB SEAP reporter activity (RAW-Dual [2]; [6]): 0.713
NF-kB SEAP reporter activity (RAW-Dual [2]; [7]): 1.24
NF-kB SEAP reporter activity (RAW-Dual [2]; [8]): 2.16

CC(C)NC(=O)C1CCC(n2c(=NC(=O)c3ccc(F)cc3)[nH]c3ccc(CN4CCC(C(C)(C)O)CC4)cc32)CC1 (configuration not stated)
NF-kB SEAP reporter activity (RAW-Dual [1]; [4]): 1.44
NF-kB SEAP reporter activity (RAW-Dual [1]; [5]): 0.822

Cc1cccc(Nc2nc(NC3CCCCC3N)ncc2C(N)=O)c1.Cl.Cl (configuration not stated) (library stock concentration (final ~1000-fold dilution): 10 mM)
NF-kB SEAP reporter activity (RAW-Dual [3]; agonist: LPS (TLR4) 0.1 ug/mL): 0.227
NF-kB SEAP reporter activity (RAW-Dual [3]; [6]): 0.179
NF-kB SEAP reporter activity (RAW-Dual [3]; [7]): 0.158
NF-kB SEAP reporter activity (RAW-Dual [3]; [8]): 0.187

Cc1cccc(Nc2nc(NC3CCCCC3N)ncc2C(N)=O)c1.Cl.Cl (configuration not stated)
NF-kB SEAP reporter activity (RAW-Dual [1]; [9]): 0.364
NF-kB SEAP reporter activity (RAW-Dual [1]; [10]): 0.345

O=C(O)CCN1C(=O)/C(=C2/C(=O)Nc3ccc(Cl)cc32)SC1=S (library stock concentration (final ~1000-fold dilution): 10 mM)
NF-kB SEAP reporter activity (RAW-Dual [2]; agonist: LPS (TLR4) 0.1 ug/mL): 1.86
NF-kB SEAP reporter activity (RAW-Dual [2]; [6]): 0.841
NF-kB SEAP reporter activity (RAW-Dual [2]; [7]): 1.4
NF-kB SEAP reporter activity (RAW-Dual [2]; [8]): 1.57

O=C(O)CCN1C(=O)/C(=C2/C(=O)Nc3ccc(Cl)cc32)SC1=S
NF-kB SEAP reporter activity (RAW-Dual [1]; [4]): 0.954
NF-kB SEAP reporter activity (RAW-Dual [1]; [5]): 1.18

COc1cc(Nc2ncc3c(n2)-c2ccc(Cl)cc2C(c2c(F)cccc2OC)=NC3)ccc1C(=O)O
NF-kB SEAP reporter activity (RAW-Dual [1]; [4]): 0.662
NF-kB SEAP reporter activity (RAW-Dual [1]; [5]): 0.756

COc1cc(Nc2ncc3c(n2)-c2ccc(Cl)cc2C(c2c(F)cccc2OC)=NC3)ccc1C(=O)O (library stock concentration (final ~1000-fold dilution): 10 mM)
NF-kB SEAP reporter activity (RAW-Dual [2]; agonist: LPS (TLR4) 0.1 ug/mL): 0.64
NF-kB SEAP reporter activity (RAW-Dual [2]; [6]): 0.531
NF-kB SEAP reporter activity (RAW-Dual [2]; [7]): 0.392
NF-kB SEAP reporter activity (RAW-Dual [2]; [8]): 0.497

O=C(O)c1cc(C(=O)O)c(C(=O)N(Cc2cccc(Oc3ccccc3)c2)C2CCCc3ccccc32)cc1C(=O)O (configuration not stated) (library stock concentration (final ~1000-fold dilution): 10 mM)
NF-kB SEAP reporter activity (RAW-Dual [2]; agonist: LPS (TLR4) 0.1 ug/mL): 1.22
NF-kB SEAP reporter activity (RAW-Dual [2]; [6]): 0.926
NF-kB SEAP reporter activity (RAW-Dual [2]; [7]): 1.03
NF-kB SEAP reporter activity (RAW-Dual [2]; [8]): 1.07

O=C(O)c1cc(C(=O)O)c(C(=O)N(Cc2cccc(Oc3ccccc3)c2)C2CCCc3ccccc32)cc1C(=O)O (configuration not stated)
NF-kB SEAP reporter activity (RAW-Dual [1]; [4]): 0.916
NF-kB SEAP reporter activity (RAW-Dual [1]; [5]): 0.909

CCc1ccc(/C=C2/SC(=S)NC2=O)cc1 (library stock concentration (final ~1000-fold dilution): 10 mM)
NF-kB SEAP reporter activity (RAW-Dual [2]; agonist: LPS (TLR4) 0.1 ug/mL): 0.985
NF-kB SEAP reporter activity (RAW-Dual [2]; [6]): 0.738
NF-kB SEAP reporter activity (RAW-Dual [2]; [7]): 0.864
NF-kB SEAP reporter activity (RAW-Dual [2]; [8]): 0.461

CCc1ccc(/C=C2/SC(=S)NC2=O)cc1
NF-kB SEAP reporter activity (RAW-Dual [1]; [4]): 0.857
NF-kB SEAP reporter activity (RAW-Dual [1]; [5]): 0.857

Cc1ccc(Nc2nccc(N(C)c3ccc4c(C)n(C)nc4c3)n2)cc1S(N)(=O)=O (library stock concentration (final ~1000-fold dilution): 10 mM)
NF-kB SEAP reporter activity (RAW-Dual [2]; agonist: LPS (TLR4) 0.1 ug/mL): 2.03
NF-kB SEAP reporter activity (RAW-Dual [2]; [6]): 1.33
NF-kB SEAP reporter activity (RAW-Dual [2]; [7]): 0.781
NF-kB SEAP reporter activity (RAW-Dual [2]; [8]): 1.17

Cc1ccc(Nc2nccc(N(C)c3ccc4c(C)n(C)nc4c3)n2)cc1S(N)(=O)=O
NF-kB SEAP reporter activity (RAW-Dual [1]; [4]): 1.68
NF-kB SEAP reporter activity (RAW-Dual [1]; [5]): 1.9

CN1CCc2c(c3ccccc3n2Cc2ccc(C(=O)NO)cc2)C1.Cl
NF-kB SEAP reporter activity (RAW-Dual [1]; [4]): 2.44
NF-kB SEAP reporter activity (RAW-Dual [1]; [5]): 2.55

CN1CCc2c(c3ccccc3n2Cc2ccc(C(=O)NO)cc2)C1.Cl (library stock concentration (final ~1000-fold dilution): 10 mM)
NF-kB SEAP reporter activity (RAW-Dual [2]; agonist: LPS (TLR4) 0.1 ug/mL): 5.1
NF-kB SEAP reporter activity (RAW-Dual [2]; [6]): 1.71
NF-kB SEAP reporter activity (RAW-Dual [2]; [7]): 1.08
NF-kB SEAP reporter activity (RAW-Dual [2]; [8]): 1.59

COc1cccc(-c2cc(F)ccc2C2Cc3nc(N)nc(C)c3C(=O)N2)n1 (configuration not stated)
NF-kB SEAP reporter activity (RAW-Dual [1]; [4]): 0.226
NF-kB SEAP reporter activity (RAW-Dual [1]; [5]): 0.406

COc1cccc(-c2cc(F)ccc2C2Cc3nc(N)nc(C)c3C(=O)N2)n1 (configuration not stated) (library stock concentration (final ~1000-fold dilution): 10 mM)
NF-kB SEAP reporter activity (RAW-Dual [2]; agonist: LPS (TLR4) 0.1 ug/mL): 0.206
NF-kB SEAP reporter activity (RAW-Dual [2]; [6]): 0.215
NF-kB SEAP reporter activity (RAW-Dual [2]; [7]): 0.0694
NF-kB SEAP reporter activity (RAW-Dual [2]; [8]): 0.145
